Results: paper PMC12136788
The other results are listed elsewhere or left out.

T1: UNK ZnF1-3 (human, UniProt Q9C0B0 31-174)
T1 sequence: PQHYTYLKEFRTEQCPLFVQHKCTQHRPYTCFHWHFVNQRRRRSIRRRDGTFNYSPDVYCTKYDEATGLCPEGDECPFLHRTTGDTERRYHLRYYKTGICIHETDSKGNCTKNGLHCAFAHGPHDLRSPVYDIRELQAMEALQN

B1: chr10:24872911:24872912:-_ENSG00000107863_ENST00000396432|hu_hu|FALSE|FALSE (ssRNA)
RNA: GGGAGUUCUACAGUCCGACGAUCUAAUGAUAUCUGUUACCAAUAAAACGCAUUCGUUUAUUCAAUGUAAGUAAGUUAUCUAAUUUUAACAAUAUGGCACCCUAAAAACCAACUGUAUUUUUAUGAUGAGGCACUUUUGUUAGUCAACAGAGGAUUGAGCAUCA
B2: chr11:46405157:46405158:+_ENSG00000110492_ENST00000395566|hu_hu|hu_hu_hu_mus_False|8_28 (ssRNA)
RNA: GGGAGUUCUACAGUCCGACGAUCCCCUCCCCACUUUGGGCACUUGGUGUGGGCGUGAGAGGACAGGCGUGAUUGACAGAGCUGACAGGAAGACAAAAGGCACUGGUGGGUCACAUCUUGGGCCUGUGAGAGGGAGGGGCUCCGCAACAGAGGAUUGAGCAUCA
B3: chr6:36694466:36694467:-_ENSMUSG00000029838_ENSMUST00000101534|mus_mus|motif|central (ssRNA)
RNA: GGGAGUUCUACAGUCCGACGAUCCUCAGCAGUGUCCACAGCUGCCAAGAUGAAAAUCAAUGCCAGGAAGGCAGCUGCAAAUUUUCGGCGUUGCUGCUGAUAUUGCUGGGACGACAUUUUUUGGCUUGCAGAGGUCCUCGCUGACAACAGAGGAUUGAGCAUCA
B4: chr18:32917252:32917253:-_ENSG00000172466_ENST00000399061|hu_mus|FALSE|FALSE (ssRNA)
RNA: GGGAGUUCUACAGUCCGACGAUCUUCUUAAACCUUCACAACAUUCAAAAGUUUUUCUGCAUUGUGUCGUCUCUGAUGUCUGAAGAGGUUUGAGCUCUGACUGUAGGAUUUCCCACACUGCACACACUCGUAAGGUUUCUCCCCCAACAGAGGAUUGAGCAUCA
B5: chr11:72497679:72497680:+_ENSMUSG00000020794_ENSMUST00000021148|mus_hu|motif|central (ssRNA)
RNA: GGGAGUUCUACAGUCCGACGAUCAUUGCUAUAUCCAAUCCAAGAGGUGGGUGCAACUAGAAUACAAAAAGGACAAAGCACCGGGUGAUGACUCCUUCGAAGUCAUCAUUAAAAAUCAAGUAAUUGCUCAUUAAGUAUUUCAGUCAACAGAGGAUUGAGCAUCA
B6: chr7:52703327:52703328:+_ENSMUSG00000003865_ENSMUST00000003964|mus_hu|FALSE|FALSE (ssRNA)
RNA: GGGAGUUCUACAGUCCGACGAUCCACCUUCACCCUGUCGGCACUGCUAUUGAAGAGGCCGAUUCGGCGGAUGGUGGUCAGGAUGGGGUCUGAGGAGUCAUCCAGCAUAUUGUGGGUGCACACAGGGGGGAAAGACUGCCGCUGCAACAGAGGAUUGAGCAUCA
B7: chrX:71549762:71549763:+_ENSMUSG00000019087_ENSMUST00000019231|mus_mus|mus_mus_mus_hu_False|18_18 (ssRNA)
RNA: GGGAGUUCUACAGUCCGACGAUCAAACCCGUGUACUUCUUAUUGUUAGCACAACAUCACCAGAAAACGAUAACGACAGCCAAGCAGGACAGACAGUUAAGUAGUACUUCCACACUCCGCAAAUUCAGGAGCCCUAUAACCUUACAACAGAGGAUUGAGCAUCA
B8: 78181470_78183588_2034_CDS_ENSG00000077254_ENST00000357428|human|control|control (ssRNA)
RNA: GGGAGUUCUACAGUCCGACGAUCUGAAACUUCAGUGACACUCUGAUCAUCAAAUUCAUACCAGAGAUUAUUUAGAUUGUUUCGGCAGUAGGCUAUAUAGUGUCCACUACUUGCAGUUCCAUGAUGGCAAAUGACUGACAGAAGCAACAGAGGAUUGAGCAUCA
B9: 59172640_59175087_1077_CDS_ENSMUSG00000025235_ENSMUST00000026265|mouse|control|control (ssRNA)
RNA: GGGAGUUCUACAGUCCGACGAUCUAUAUCUUCCAGGUUGGUCAGAGCCACAGCCAAGAGCAUGUAGAGUUCCCCCAUCUUUGGCUGGAAGUUGAUGGCUGCACUGAGAAAAUGGAAUGCUGAUGCAUACUGCUGCAUAGUCAACAACAGAGGAUUGAGCAUCA
B10: chr3:197678047:197678048:+_ENSG00000182899_ENST00000448864|hu_hu|FALSE|FALSE (ssRNA)
RNA: GGGAGUUCUACAGUCCGACGAUCUUAAGAAGAGCUGUGUGCUCCCUUUGGUUCCGGAGACCCCGCUUAUAGCCAGCAAAAAUGGCCUUGGACCACAGCCUUCCAGACAUAGUUCCUUUUAGAAGUCCCGUUCCCAGCAGGCCGCAACAGAGGAUUGAGCAUCA
B11: chr18:58105177:58105178:+_ENSMUSG00000024597_ENSMUST00000115366|mus_mus|motif|central (ssRNA)
RNA: GGGAGUUCUACAGUCCGACGAUCUAACGUCUUGCUUGACCUGACUUGACUGUUUACUUAAAAAAAGAAAAAGAAAAAACGGAAACAACAACAAAAAAAUAUCUGUAAUCUACCAAAUCGUGAUCACUUUAAAAUCUGAAACACCAACAGAGGAUUGAGCAUCA
B12: chr3:58389919:58389920:+_ENSMUSG00000075700_ENSMUST00000107924|mus_hu|FALSE|FALSE (ssRNA)
RNA: GGGAGUUCUACAGUCCGACGAUCGCUAGGAGCUUGCAUGCCAAAGAAAGCAAAAGGAUCCUUGCCAACAAUUAUUAAGCCUAUUAAUACUAGUUUGAAGACUGACAGGAAAGAUGCUAUGUGUCUAUAUAUUGGUUGAGGGAGCAACAGAGGAUUGAGCAUCA
B13: chr8:11781157:11781158:+_ENSMUSG00000031511_ENSMUST00000110909|mus_mus|motif|central (ssRNA)
RNA: GGGAGUUCUACAGUCCGACGAUCCAAGGAGCUGAGGACCUUGUUAAAGUUCUGCCCCUGAUACAAAUCAUUUGCAUCAAAAGUCUCGGGGCGCAGGGACGCCCCGCAGGCGCGCAGGAACUCGCGGAUGUUGCUCAGGCACUCCAACAGAGGAUUGAGCAUCA
B14: chr19:16212804:16212805:+_ENSG00000167460_ENST00000300933|hu_mus|hu_hu_hu_mus_False|48_48 (ssRNA)
RNA: GGGAGUUCUACAGUCCGACGAUCAACAAUUCUGGAGUGAAGGAAAGAUGUAACAUGGAACAGCAUUAAAGCUCAGUCAGAAGGCACGUGGGUAAUUAUGAUCACCCCAGCAUUCUCGCUUGGAAUGCUUAAAGACAAUCUGUUCAACAGAGGAUUGAGCAUCA
B15: chr11:4127340:4127341:+_ENSG00000167325_ENST00000300738|hu_mus|hu_hu_hu_mus_False|28_98 (ssRNA)
RNA: GGGAGUUCUACAGUCCGACGAUCGGCAUAGUCAGGGUGCUUAGUAGUCAAGGUCGCGGCUGUCUCAGCAGCCAGGGUGUCCAGUUCCACUGUGGUGACCCCACUAUACAAGCCUUGGAUUACUUUCAUGGUGAUCUGAGCAGGCAACAGAGGAUUGAGCAUCA
B16: chr5:64892317:64892318:-_ENSG00000113595_ENST00000231524|hu_mus|FALSE|FALSE (ssRNA)
RNA: GGGAGUUCUACAGUCCGACGAUCAGCUUGUGUAUUGAGGUAAUAAUGUUUCCACAAUGGUCUUAAUUUGUGUUUUCCACCCACAUCCCAAAUGGUGAAUUUUAGAUUUUUGUAUUCCACAGUUUCCACAUUAAAACCAAUUGUCAACAGAGGAUUGAGCAUCA
B17: chr1:163122491:163122492:-_ENSG00000143248_ENST00000313961|hu_mus|FALSE|FALSE (ssRNA)
RNA: GGGAGUUCUACAGUCCGACGAUCGGCAACCCAGAACUCAAGGUUUUCCUCACUGAAUUCAGACUUCAGGAAACUUUUGAAGCUGGCAAAUCCAUAGCUGUUCUGGAGAAGCUUGUCCAGGGACUGGCGCCACUGCAGGACCUCCAACAGAGGAUUGAGCAUCA
B18: chr7:26236612:26236613:-_ENSG00000122566_ENST00000356674|hu_hu|motif|central (ssRNA)
RNA: GGGAGUUCUACAGUCCGACGAUCAACAAACAGCUUCUUCACAGUUACAUGAGCCCCUGGUUUUCCAGAUUCCUCUCUUGCGGCAGCACGUUUUGGCUCAACUACUCUCCCAUCAAUUGAAUGAGGUCUUGCAGCCAUGGCAGCCAACAGAGGAUUGAGCAUCA
B19: chr5:92873050:92873051:-_ENSMUSG00000029426_ENSMUST00000031377|mus_mus|FALSE|FALSE (ssRNA)
RNA: GGGAGUUCUACAGUCCGACGAUCUCCCAGGGCCCAACCACAAAAAGUUUCUACACAAGUUUAUUAAAUACUUCCUAGACACAUGAACACAGUUUUAGAGACACGAUUUUAUAAAGCAGAAUUGCCAGCCAUGUCACCCUGCUCCAACAGAGGAUUGAGCAUCA
B20: chr1:186326634:186326635:-_ENSG00000047410_ENST00000367478|hu_hu|FALSE|FALSE (ssRNA)
RNA: GGGAGUUCUACAGUCCGACGAUCGGCCACUAAGAGACGUUGAUUUUGUUGUUGAAGCUCUUCAAUAUUUCUGUAAGAUACUAGAUGCUGUGAUAUUACCUCAGAUGAACUACUUAUAUCAGCAGAGCUUACUUCCUCAUCACGCAACAGAGGAUUGAGCAUCA
B21: chr3:148802587:148802588:-_ENSG00000071794_ENST00000310053|hu_mus|hu_hu_hu_mus_False|1_58 (ssRNA)
RNA: GGGAGUUCUACAGUCCGACGAUCUCCAACAACUUGUCCUCUCAUAGUUCCAAAUAAAACCAAAUCUUGCUCUUCAUCACUAGUUAGGAAGUCAUCUGGAGGAAUAAUGUCUUGGAAUUCAAAAUGUGGCAAGAAAGUUGGAUACAACAGAGGAUUGAGCAUCA
B22: chr14:78183846:78183847:+_ENSG00000119705_ENST00000557342|hu_hu|hu_hu_hu_mus_False|28_88 (ssRNA)
RNA: GGGAGUUCUACAGUCCGACGAUCUCUCAGAAAUCUUUCUUCAUCAGCAUCAUCAGAUCCGUGCAAAGCCUUUGCUCUUUGAGCUUGAACGUGGAUCUAUGGGAGGGCUAUAAUAUGCAGAAAAGGUAAUUUUUUUUUUAAAGACAACAGAGGAUUGAGCAUCA

Each binder was assayed against T1, UNK ZnF1-3 (assay: nsRBNS (natural sequence RNA bind-n-seq); RBNS binding buffer (assumed for nsRBNS): 25 mM Tris pH 7.5, 150 mM KCl, 3 mM MgCl2, 0.01% Triton X-100, 500 ug/ml BSA, 20 U/ml SUPERase-In, 4 C; UNK is unkempt and MSI1 is Musashi-1; names of the RNAs are library labels; protein concentration not given here; high values mean tight binding).

Q: With B1 as the binder, how does the binding signal read?
A: Its binding signal is 0.642 enrichment R.

Q: With B2 as the binder, how does the binding signal read?
A: The binding signal was 2.37 enrichment R.

Q: Which binding signal does the source give for B3 here?
A: Its binding signal is 0.693 enrichment R.

Q: With B4 as the binder, how does the binding signal read?
A: Its binding signal is 1.2 enrichment R.

Q: B5 was tested. Which binding signal did it give?
A: Its binding signal is 1.98 enrichment R.

Q: How did the binding signal turn out when B6 was run?
A: The binding signal was 0.978 enrichment R.

Q: How did the binding signal turn out when B7 was run?
A: Its binding signal is 1.55 enrichment R.

Q: With B8 as the binder, how does the binding signal read?
A: The binding signal was 1.27 enrichment R.

Q: For B9, which binding signal is on record?
A: The binding signal was 1.35 enrichment R.

Q: How did the binding signal turn out when B10 was run?
A: The binding signal was 0.857 enrichment R.

Q: B11 was tested. Which binding signal did it give?
A: Its binding signal is 2.7 enrichment R.

Q: B12 was tested. Which binding signal did it give?
A: The binding signal was 1.75 enrichment R.

Q: B13 was tested. Which binding signal did it give?
A: The binding signal was 0.946 enrichment R.

Q: Which binding signal does the source give for B14 here?
A: The binding signal was 1.1 enrichment R.

Q: With B15 as the binder, how does the binding signal read?
A: The binding signal was 0.965 enrichment R.

Q: How did the binding signal turn out when B16 was run?
A: The binding signal was 0.951 enrichment R.

Q: With B17 as the binder, how does the binding signal read?
A: The binding signal was 1.21 enrichment R.

Q: For B18, which binding signal is on record?
A: Its binding signal is 1.1 enrichment R.

Q: How did the binding signal turn out when B19 was run?
A: Its binding signal is 2.01 enrichment R.

Q: For B20, which binding signal is on record?
A: The binding signal was 0.904 enrichment R.

Q: Which binding signal does the source give for B21 here?
A: Its binding signal is 1.08 enrichment R.

Q: B22 was tested. Which binding signal did it give?
A: The binding signal was 1.63 enrichment R.
